# Measured values from patent US5169932A, “GnRH analogs” (The Salk Institute for Biological Studies, priority 1990, dated 1992).
# Not every detail of the peptide structures is certain; ends, links or a residue may be inferred. Numbered stars: 1 amine (or outer) side, 2 acyl side, 3 side chain; on linkers, the order of the positions; unused ones are H or OH. Square brackets hold non-standard residues; d marks the D form. Peptide text beside a SMILES is read from it. * marks the point of attachment. X34 = N#CN=C(NCCCC[C@@H](N[*:1])C(=O)[*:2])NCCc1c[nH]cn1; X33 = N#CN=C(NCCCC[C@H](N[*:1])C(=O)[*:2])NCCc1c[nH]cn1; X13 = N#CN=C(NCCCC[C@@H](N[*:1])C(=O)[*:2])NCc1ccccn1; X28 = N#CN=C(NCCC[C@@H](N[*:1])C(=O)[*:2])NCc1ccccn1; X25 = CCCNC(=NC#N)NCCCC[C@@H](N[*:1])C(=O)[*:2]; X17 = CCCCNC(=NC#N)NCCC[C@H](N[*:1])C(=O)[*:2]; X24 = CCCNC(=NC#N)NCCCC[C@H](N[*:1])C(=O)[*:2]; Triazol3yl(1,2,4-5-NH2) = Nc1nc(*)n[nH]1; dPhe(4-Cl) = N[C@H](Cc1ccc(Cl)cc1)C(=O)O; d2Nal = N[C@H](Cc1ccc2ccccc2c1)C(=O)O; Lys(iPr) = CC(C)NCCCC[C@H](N)C(=O)O; d3Pal = N[C@H](Cc1cccnc1)C(=O)O
# System: mature female Sprague-Dawley rats (ovulation)
# Test: in vivo test of effectiveness to prevent ovulation in female rats
# Set-up: species or system rat
# Conditions: injected at about noon on the day of proestrus, rats ovulating/rats treated
SMILES,Rats Ovulating (dosage 1.0 micrograms),Rats Ovulating (dosage 2.5 micrograms),Rats Ovulating (dosage 2.0 micrograms)
CC(=O)N[C@H](Cc1ccc2ccccc2c1)C(=O)N[C@H](Cc1ccc(Cl)cc1)C(=O)N[C@H](Cc1cccnc1)C(=O)N[C@@H](CO)C(=O)N[C@@H](CCCCNC(=NC#N)NCCc1c[nH]cn1)C(=O)N[C@H](CCCCNC(=NC#N)NCCc1c[nH]cn1)C(=O)N[C@@H](CC(C)C)C(=O)N[C@@H](CCCCNC(C)C)C(=O)N1CCC[C@H]1C(=O)N[C@H](C)C(N)=O [Peptide 94] (Ac-[d2Nal][dPhe(4-Cl)][d3Pal]S[X33][X34]L[Lys(iPr)]P[dA]-NH2),7/11,–,–
CCCCNC(=NC#N)NCCC[C@H](NC(=O)[C@H](CO)NC(=O)[C@@H](Cc1cccnc1)NC(=O)[C@@H](Cc1ccc(Cl)cc1)NC(=O)[C@@H](Cc1ccc2ccccc2c1)NC(C)=O)C(=O)N[C@H](CCCNC(=NC#N)NCc1ccccn1)C(=O)N[C@@H](CC(C)C)C(=O)N[C@@H](CCCCNC(C)C)C(=O)N1CCC[C@H]1C(=O)N[C@H](C)C(N)=O [Peptide 102] (Ac-[d2Nal][dPhe(4-Cl)][d3Pal]S[X17][X28]L[Lys(iPr)]P[dA]-NH2),–,2/9,–
"CC(=O)N[C@H](Cc1ccc2ccccc2c1)C(=O)N[C@H](Cc1ccc(Cl)cc1)C(=O)N[C@H](Cc1cccnc1)C(=O)N[C@@H](CO)C(=O)N[C@@H](CCCCNc1nc(N)n[nH]1)C(=O)N[C@H](CCCCNc1nc(N)n[nH]1)C(=O)N[C@@H](CC(C)C)C(=O)N[C@@H](CCCCNC(C)C)C(=O)N1CCC[C@H]1C(=O)N[C@H](C)C(N)=O [Peptide 4] (Ac-[d2Nal][dPhe(4-Cl)][d3Pal]SK(Triazol3yl(1,2,4-5-NH2))[dK](Triazol3yl(1,2,4-5-NH2))L[Lys(iPr)]P[dA]-NH2)",–,0/6,1/10
CCCNC(=NC#N)NCCCC[C@H](NC(=O)[C@H](CO)NC(=O)[C@@H](Cc1cccnc1)NC(=O)[C@@H](Cc1ccc(Cl)cc1)NC(=O)[C@@H](Cc1ccc2ccccc2c1)NC(C)=O)C(=O)N[C@H](CCCCNC(=NC#N)NCCC)C(=O)N[C@@H](CC(C)C)C(=O)N[C@@H](CCCCNC(C)C)C(=O)N1CCC[C@H]1C(=O)N[C@H](C)C(N)=O [Peptide 5] (Ac-[d2Nal][dPhe(4-Cl)][d3Pal]S[X24][X25]L[Lys(iPr)]P[dA]-NH2),–,–,1/10
CC(=O)N[C@H](Cc1ccc2ccccc2c1)C(=O)N[C@H](Cc1ccc(Cl)cc1)C(=O)N[C@H](CCCCNC(=NC#N)NCc1ccccn1)C(=O)N[C@@H](CO)C(=O)N[C@@H](Cc1ccc(O)cc1)C(=O)N[C@H](CCCNC(=N)N)C(=O)N[C@@H](CC(C)C)C(=O)N[C@@H](CCCNC(=N)N)C(=O)N1CCC[C@H]1C(=O)N[C@H](C)C(N)=O [Peptide 112] (Ac-[d2Nal][dPhe(4-Cl)][X13]SY[dR]LRP[dA]-NH2),4/8,–,–
